This is one part of the list. These are further read-outs of the screen, such as a control signal, another cell line or another target. No call is given for them. For some assays here: Compounds called inactive in the main read-out are mostly missing here. For some assays here: The note in brackets gives the kind of curve behind each potency; many fits are weak.
How the values were obtained:
[1] = target: Histamine N-methyltransferase (Homo sapiens) (UniProt P50135); experiment: Confirmatory Screen for Target Class Profiling of Small Molecule Inhibitors of Methyltransferases (AID 1745852); details: MTase-Glo luminescence, SAH detection, recombinant enzyme; measured here: HNMT inhibition potency;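 note: inhibitor potency for blocking SAH production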
Sequence of UniProt P50135 (P50135 whole entry, looked up): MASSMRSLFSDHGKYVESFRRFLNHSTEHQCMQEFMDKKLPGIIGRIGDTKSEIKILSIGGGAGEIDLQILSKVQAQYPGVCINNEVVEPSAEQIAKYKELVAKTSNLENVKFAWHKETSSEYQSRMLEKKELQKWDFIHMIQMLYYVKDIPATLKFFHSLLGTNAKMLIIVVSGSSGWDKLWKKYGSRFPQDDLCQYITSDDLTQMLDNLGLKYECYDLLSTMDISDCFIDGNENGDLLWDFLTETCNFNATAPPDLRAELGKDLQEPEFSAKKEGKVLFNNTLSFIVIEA

[2] = qHTS Assay for Modulators of Human Peripheral Myelin Protein 22 (PMP22) Expression/Activity (AID 1967); details: Cell-based PMP22 reporter, dual-color luciferase ratio
Method in brief: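 Luminescence ratio of Pmp22 promoter-driven green luciferase to EF-alpha-driven red luciferase, in engineered mouse MSC80 Schwann cells, served as read-out. Compounds were incubated 24h; untreated cells defined 0% Activity; curves were classified by r2, magnitude and activity.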

[3] = target: Catechol O-methyltransferase (Homo sapiens) (UniProt P21964); experiment: Confirmatory Screen for Target Class Profiling of Small Molecule Inhibitors of Methyltransferases (AID 1745852); details: MTase-Glo luminescence, SAH detection, recombinant enzyme; measured here: COMT inhibition potency;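 note: inhibitor potency for blocking SAH production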
Sequence of UniProt P21964 (P21964 whole entry, looked up): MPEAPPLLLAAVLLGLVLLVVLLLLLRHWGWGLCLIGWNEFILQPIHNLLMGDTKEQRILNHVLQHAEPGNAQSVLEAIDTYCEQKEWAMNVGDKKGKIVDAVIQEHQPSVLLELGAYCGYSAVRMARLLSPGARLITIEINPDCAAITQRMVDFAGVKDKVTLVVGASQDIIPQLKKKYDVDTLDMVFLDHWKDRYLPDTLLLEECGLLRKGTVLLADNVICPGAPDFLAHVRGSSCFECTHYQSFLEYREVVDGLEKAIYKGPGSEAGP

[4] = qHTS assay for small molecule antagonists of peroxisome proliferator-activated receptor delta signaling (AID 588535); details: HEK293T PPARd-UAS-bla, beta-lactamase FRET ratio, 18 h; 460 nm channel;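 note: cells co-treated with a PPAR-delta agonist as stimulator during compound exposure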
Method in brief: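 Reporter: UAS-bla under PPAR-delta response element, HEK293T host. Medium: 2% charcoal/dextran FBS. Dosing: titration, 18 hrs, 37 C. Detection: CCF4, 2 hrs RT, 405 ex/460 and 530 em.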

[5] = qHTS assay for small molecule antagonists of retinoid X receptor alpha signaling (AID 588546); details: HEK293T RXRa-UAS-bla, beta-lactamase ratio, antagonist mode; measured here: W530 green channel, cytotoxicity proxy;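 note: cells stimulated with 9-cis-retinoic acid as agonist; % is set by controls: 0 for no effect and ±100 for the full control effect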
Method in brief: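 Beta-lactamase reporter inhibition, read as CCF4 fluorescence ratio (ex 405, em 460/530 nm) after 2 h at RT. HEK293T UAS-bla cells, 2500/well, were stimulated with 9-cis-RA at 500 or 100 nM final alongside test compound for 18 h at 37 C.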

[6] = qHTS Validation Assay for Iinhibitors of HIV-1 Budding by Blocking the Interaction of PTAP/TSG101 (AID 485342); details: TSG101-PTAP binding, fluorescence polarization, 4-point titration; measured here: FITC channel readout
Method in brief: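 Binding of a FITC-tagged PTAP-motif peptide (50 nM) to the Tsg101 binding domain (10 uM) is monitored by fluorescence polarization. Compounds are pin-delivered before peptide addition, and incubation runs 20 min at room temperature.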

[7] = qHTS Validation Assay to Find Inhibitors of Chronic Active B-Cell Receptor Signaling (AID 485345); details: ABC-DLBCL cells, chronic BCR signaling reporter
Method in brief: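 TMD8 ABC-DLBCL cells with dox-inducible green luciferase–IκBα fusion and red native luciferase; compounds 46 uM–3 nM, 4 h at 37C with doxycycline in 0.5% FBS IMDM. Green/red ratio normalized to basal and 10 uM MG-132.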

[8] = Nrf2 qHTS screen for inhibitors: Validation (AID 493153); details: A549 ARE-Fluc reporter, 18-24 h; AC50: CellTiter-Fluor fluorescence read, measured here: cytotoxicity CellTiter-Fluor AC50; viability change: measured here: cytotoxicity max response
Method in brief: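 Luminescence from an ARE-firefly luciferase reporter in A549 cells gives Nrf2 inhibition; an earlier CellTiter-Fluor fluorescent read flags cytotoxicity. Cells in 5% FBS OPTI-MEM received compound dilution series for 18-24 h at 37°C.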

[9] = measured here: green reporter channel AC50, mouse Pmp22 promoter in mouse Schwann cells
[10] = measured here: red reporter channel AC50, EF-alpha promoter control reporter in MSC80 mouse Schwann cells
[11] = measured here: CBG/CBR ratio read-out
[12] = measured here: CBR control luciferase (viability counter)
Tags give direction and shape of the fitted curve.

O=C(CCc1nnc2n(Cc3ccccc3Cl)c(=O)c3ccccc3n12)NCCc1c[nH]c2ccccc12
IC50 [1]: 15.2 µM [falling, partial curve]

Cc1ccc(Cn2c(=O)c3ccccc3n3c(CCC(=O)NCCCN4CCN(C)CC4)nnc23)cc1
IC50 [1]: 13.6 µM [falling, partial curve]

CC1CCN(CCCNC(=O)CCc2nnc3n(Cc4ccccc4Cl)c(=O)c4ccccc4n23)CC1
IC50 [1]: 10.8 µM [falling, partial curve]

Oc1ccc(C2CNCc3sccc32)cc1O (configuration not stated)
AC50 [2, 9]: 53.6 µM [falling, partial curve] | AC50 [2, 10]: 67.5 µM [falling, partial curve] | IC50 [3]: 6.11 µM [rising, full curve]

O=C(c1ccc(C2CCCNC2)cc1)N1CCN(c2ccncc2)CC1 (configuration not stated)
IC50 [1]: 0.681 µM [falling, full curve]

Cc1ccc([C@@H]2CN(c3cc(N4CCC(O)CC4)ncn3)C[C@H]2N(C)C)cc1
IC50 [1]: 19.2 µM [falling, partial curve]

COc1cc2c(Nc3cc(F)c(Cl)c(Cl)c3)ncnc2cc1OCC1CCCN(C)CCC1
IC50 [1]: 19.2 µM [falling, partial curve]

Oc1ccccc1O
max response [4]: 48.8% | max response [5]: -4.77% | IC50 [3]: 6.85 µM [rising, partial curve]

O=C(c1ccc(Cl)cc1)N1CC2(CCN(CC3CC3)CC2)Cc2ccccc21
IC50 [1]: 7.64 µM [falling, partial curve]

COc1ccc(NC(=O)CCc2ccnc(N3CCCC3)c2)c(OC)c1
IC50 [1]: 3.04 µM [falling, full curve]

CC1CCN(CCCNC(=O)CCc2nnc3n(Cc4ccc(Cl)cc4)c(=O)c4ccccc4n23)CC1
IC50 [1]: 5.41 µM [falling, full curve]

CCCC1=Nc2cc(C(=O)NCCCN3CCCCC3CC)ccc2Sc2ccc(C)cc21 (configuration not stated)
IC50 [1]: 15.2 µM [falling, partial curve]

CN(C)C/C=C/C(=O)Nc1cccc(C(=O)Nc2ccc(Nc3nccc(-c4cccnc4)n3)cc2)c1
IC50 [1]: 4.29 µM [falling, full curve]

CCN(CC)CCCNC(=O)CCc1nnc2n(Cc3ccc(Cl)cc3)c(=O)c3ccccc3n12
IC50 [1]: 8.57 µM [falling, partial curve]

COC(=O)C(Cc1c[nH]c2ccccc12)NC(=O)c1ccccc1Br (configuration not stated)
IC50 [1]: 19.2 µM [falling, partial curve]

COc1cccc2c1OCCCN(c1cc(C3CC(O)C3)nc(N)n1)C2 (configuration not stated)
IC50 [1]: 19.2 µM [falling, partial curve]

COc1cc(/C=C(\C#N)C(=O)c2ccc(O)c(O)c2)cc(I)c1O
AC50 [2, 10]: 67.5 µM [falling, partial curve] | AC50 [6]: 56.2 µM [rising, partial curve] | AC50 [7, 11]: 16.4 µM [falling, single point] | AC50 [7, 12]: 18.4 µM [falling, single point] | IC50 [3]: 0.968 µM [rising, full curve]

O=C(O)Cc1ccc(O)c(O)c1
AC50 [2, 9]: 30.1 µM [falling, full curve, poor fit] | AC50 [2, 10]: 23.9 µM [falling, full curve] | IC50 [3]: 8.63 µM [rising, partial curve]

O=C(CCC[C@@H]1[C@H]2CCCN3CCC[C@@H](CN1Cc1ccccc1)[C@@H]23)Nc1cccnc1
IC50 [1]: 24.1 µM [falling, single point]

CCC1CCCCN1CCCNC(=O)Cn1ccc2cc(S(=O)(=O)N3CCCCC3)ccc21 (configuration not stated)
IC50 [1]: 6.81 µM [falling, partial curve]

CCNc1ncc(CN2CCN(c3ccncc3)CC2)cn1
IC50 [1]: 19.2 µM [falling, partial curve]

COc1cc(N2CCC(O)CC2)ccc1Nc1cc(Nc2ccccc2S(=O)(=O)C(C)C)c2cc[nH]c2n1
IC50 [1]: 10.6 µM [falling, partial curve]

OCC1O[C@H]([S-])[C@H](O)[C@@H](O)[C@@H]1O.[Au+] (some centres not stated)
AC50 [7, 11]: 8.2 µM [falling, partial curve] | AC50 [7, 12]: 1.3 µM [falling, partial curve] | IC50 [3]: 27.3 µM [falling, partial curve]

NC[C@H](O)c1ccc(O)c(O)c1
AC50 [2, 10]: 95.3 µM [falling, single point] | IC50 [3]: 24.3 µM [rising, partial curve]

CCOC(=O)N1CCN(/[N+]([O-])=N/Oc2ccc([N+](=O)[O-])cc2[N+](=O)[O-])CC1
AC50 [7, 11]: 16.4 µM [falling, single point] | AC50 [7, 12]: 4.61 µM [rising, partial curve] | AC50 [8]: 9.2 µM [falling, partial curve] | viability change [8]: -31% | IC50 [3]: 1.93 µM [falling, full curve]

N#Cc1cc(CN2CCCC(C(=O)Nc3cccc(-c4ccc(F)cc4)c3)C2)c[nH]1 (configuration not stated)
IC50 [1]: 24.1 µM [falling, partial curve]

Cc1cc(-c2cc3c(cn2)N(C)CCN(C)C3)ccn1
IC50 [1]: 39.3 µM [falling, partial curve]

CCOC(=O)c1cccc(Nc2cc(C)nc3ccc(C)cc23)c1
IC50 [1]: 6.81 µM [falling, full curve]

NS(=O)(=O)c1cccc2c1c([N+](=O)[O-])cc1nc(O)c(O)nc12
AC50 [7, 12]: 29.1 µM [rising, single point] | IC50 [3]: 3.06 µM [falling, full curve]

Reference: PubChem BioAssay (NCATS)
